# Test results from a collection of fitness landscapes (doi:10.1126/science.1257360).
# This is one part of the list.
# B1: PhoQ; a variant is named by its letters at X, in order, P23837 (parent)
# chain: MKKLLRLFFPLSLRVRFLLATAAVVLVLSLAYGMVALIGYSVSFDKTTFRLLRGESNLFYTLAKWENNKLHVELPENIDKQSPTMTLIYDENGQLLWAQRDVPWLMKMIQPDWLKSNGFHEIEADVNDTSLLLSGDHSIQQQLQEVREDDDDAEMTHSVAVNVYPATSRMPKLTIVVVDTIPVELKSSYMVWSWFIYVLSANLLLVIPLLWVAAWWSLRPIEALAKEVRELEEHNRELLNPATTRELTSLVRNLNRLLKSERERYDKYRTTLTDLTHSLKTPLXXLQXXLRSLRSEKMSVSDAEPVMLEQISRISQQIGYYLHRASMRGGTLLSRELHPVAPLLDNLTSALNKVYQRKGVNISLDISPEISFVGEQNDFVEVMGNVLDNACKYCLEFVEISARQTDEHLYIVVEDDGPGIPLSKREVIFDRGQRVDTLRPGQGVGLAVAREITEQYEGKIVAGESMLGGARMEVIFGRQHSAPKDE
# Variants of: B1
# Test: enrichment ratio after two sorts for PhoP signalling (ratio (wild type AVST 3.29)); higher = more functional
# Details: with PhoP (E. coli)
row,Variant,enrichment ratio
1,RTKY,≤ 0.25
2,VTLQ,11.3
3,SFSY,≤ 0.25
4,PFHK,≤ 0.25
5,HFHL,≤ 0.25
6,IARV,≤ 0.25
7,SAWF,≤ 0.25
8,NSDN,≤ 0.25
9,FHLM,≤ 0.25
10,WKDY,≤ 0.25
11,KRWL,≤ 0.25
12,EAYV,≤ 0.25
13,EMDT,≤ 0.25
14,IWLA,≤ 0.25
15,AHYL,≤ 0.25
16,TRHW,≤ 0.25
17,NVTM,≤ 0.25
18,GEEY,≤ 0.25
19,RMRN,≤ 0.25
20,YAMR,≤ 0.25
21,SEIK,0.781
22,VCRQ,≤ 0.25
23,FDTW,≤ 0.25
24,SHFM,≤ 0.25
25,EPLF,≤ 0.25

row,Variant,enrichment ratio
1,VKKS,≤ 0.25
2,VNQE,≤ 0.25
3,NPVM,≤ 0.25
4,SLPH,≤ 0.25
5,GRNH,≤ 0.25
6,DSLV,≤ 0.25
7,FDWM,≤ 0.25
8,AFQH,≤ 0.25
9,VLPM,≤ 0.25
10,TNDN,≤ 0.25
11,DSYP,≤ 0.25
12,RFVH,≤ 0.25
13,YGMP,≤ 0.25
14,YTQF,≤ 0.25
15,LGGS,≤ 0.25
16,YFIS,≤ 0.25
17,DWFS,≤ 0.25
18,WPLM,≤ 0.25
19,NHWW,≤ 0.25
20,IHIP,≤ 0.25
21,RKIW,≤ 0.25
22,LEGV,≤ 0.25
23,HDSD,≤ 0.25
24,KTRI,≤ 0.25
25,MGHQ,≤ 0.25

row,Variant,enrichment ratio
1,LHRK,≤ 0.25
2,IDSK,≤ 0.25
3,DRCN,≤ 0.25
4,GVPK,≤ 0.25
5,YHFP,≤ 0.25
6,RFDY,≤ 0.25
7,WGPH,≤ 0.25
8,MLPK,≤ 0.25
9,QGCH,≤ 0.25
10,KLDF,≤ 0.25
11,AHSI,≤ 0.25
12,FLRS,≤ 0.25
13,WMTS,≤ 0.25
14,SRTL,0.897
15,QERC,≤ 0.25
16,IDFW,≤ 0.25
17,FVYT,≤ 0.25
18,FHTD,≤ 0.25
19,MSDS,≤ 0.25
20,PHHI,≤ 0.25
21,NMNT,≤ 0.25
22,YAML,8.51
23,VKWD,≤ 0.25
24,LWIC,≤ 0.25
25,PDKE,≤ 0.25

row,Variant,enrichment ratio
1,GTKH,≤ 0.25
2,TLTV,8.62
3,SGRC,≤ 0.25
4,TNHI,≤ 0.25
5,VSIS,≤ 0.25
6,RICK,≤ 0.25
7,QYHL,≤ 0.25
8,FRFQ,≤ 0.25
9,PTYE,≤ 0.25
10,YKVR,≤ 0.25
11,SCKN,≤ 0.25
12,WELI,2.12
13,DVIM,≤ 0.25
14,YYNI,≤ 0.25
15,GDPC,≤ 0.25
16,MRKV,≤ 0.25
17,SDVP,≤ 0.25
18,KEGP,≤ 0.25
19,MRNA,≤ 0.25
20,LVAA,≤ 0.25
21,GHSS,≤ 0.25
22,MMII,≤ 0.25
23,ADTP,≤ 0.25
24,ICMK,≤ 0.25
25,MIVC,≤ 0.25

row,Variant,enrichment ratio
1,DWNM,≤ 0.25
2,WDLR,≤ 0.25
3,ENKF,≤ 0.25
4,HETW,≤ 0.25
5,ICWT,≤ 0.25
6,IDCH,≤ 0.25
7,DSAE,≤ 0.25
8,AQMG,8.69
9,TRAD,≤ 0.25
10,FHMD,≤ 0.25
11,KGGG,≤ 0.25
12,DTAA,≤ 0.25
13,GFRL,≤ 0.25
14,IYKG,≤ 0.25
15,KSLM,≤ 0.25
16,WWCN,≤ 0.25
17,WFQF,≤ 0.25
18,TLLN,0.361
19,TIFN,0.384
20,MIFY,2
21,VPKI,≤ 0.25
22,DQTE,≤ 0.25
23,TEPN,≤ 0.25
24,EVLY,≤ 0.25
25,KART,≤ 0.25

row,Variant,enrichment ratio
1,FVAC,≤ 0.25
2,FVIR,≤ 0.25
3,DCCV,≤ 0.25
4,VNTK,≤ 0.25
5,FMNS,≤ 0.25
6,TQYR,≤ 0.25
7,AATM,0.767
8,IYPE,≤ 0.25
9,LPRD,0.439
10,MTNN,≤ 0.25
11,GYEN,≤ 0.25
12,RKIS,≤ 0.25
13,ITKI,≤ 0.25
14,IHSN,≤ 0.25
15,IPVV,≤ 0.25
16,KVIG,≤ 0.25
17,LYER,≤ 0.25
18,WFEK,≤ 0.25
19,GSPC,≤ 0.25
20,VYGN,≤ 0.25
21,MQIM,≤ 0.25
22,SGFG,≤ 0.25
23,HYRG,≤ 0.25
24,QQSV,0.38
25,SRTA,≤ 0.25

row,Variant,enrichment ratio
1,PVHH,≤ 0.25
2,AQPV,≤ 0.25
3,PMFG,≤ 0.25
4,DSAG,≤ 0.25
5,NHEV,≤ 0.25
6,AKIQ,≤ 0.25
7,RSKH,≤ 0.25
8,LNFS,0.252
9,YNIA,≤ 0.25
10,TFFL,≤ 0.25
11,AKLS,13.1
12,NRTR,≤ 0.25
13,RCHI,≤ 0.25
14,TFDR,≤ 0.25
15,MDFQ,≤ 0.25
16,DDLW,≤ 0.25
17,QKTY,≤ 0.25
18,FGSC,≤ 0.25
19,NRYK,≤ 0.25
20,DVIC,≤ 0.25
21,PWYN,≤ 0.25
22,WMYR,≤ 0.25
23,YIVG,≤ 0.25
24,WKEI,≤ 0.25
25,FFLQ,≤ 0.25

row,Variant,enrichment ratio
1,GNMG,≤ 0.25
2,MKIL,≤ 0.25
3,LGLP,≤ 0.25
4,CQFS,≤ 0.25
5,TLWG,≤ 0.25
6,EQRF,≤ 0.25
7,EKWK,≤ 0.25
8,TEMW,≤ 0.25
9,DMVH,≤ 0.25
10,MNFG,3.77
11,EPSH,≤ 0.25
12,SCKR,≤ 0.25
13,RSLP,≤ 0.25
14,VVAK,≤ 0.25
15,RAGF,≤ 0.25
16,GKRE,≤ 0.25
17,GYNV,≤ 0.25
18,KQMS,≤ 0.25
19,WELH,≤ 0.25
20,NCKK,≤ 0.25
